Experimental data reported in the supplement of paper PMC3334620.
The full ranking holds about 33,000 sequences; the median of “E-score (-0.5 to 0.5)” is about -0.054, and the highest 2% start at about 0.39. Some of the results follow.

The sequences below were run against Ylr278c (UniProt Q05854) (assay: PBM E-score (8-mer binding enrichment) (E-score (-0.5 to 0.5)); higher = stronger / more preferred TF binding; most listed sequences are background and not binding sites). Conditions: protein concentration: 200 nM; construct: GST-DNA-binding domain.
How it was run: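 For each ungapped eight-base word taken together with its reverse complement, the Universal PBM Analysis Suite assigned an E-score. Binding data came from GST-tagged yeast transcription factors, applied at about 100-200 nM, on universal all-10-mer Agilent arrays made double-stranded by primer extension. Fluorescent anti-GST marked bound protein, and scans were normalised with masliner.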

| Sequence | PBM E-score |
| --- | --- |
| CCGTCATC | 0.108 |
| ATGATTCA | -0.149 |
| AGATTAGA | -0.15 |
| GAGCTGCA | 0.0493 |
| AAGTTCGT | -0.242 |
| ATGACCTA | -0.143 |
| CGCGCCCC | 0.238 |
| ACTAATCT | 0.0155 |
| AGGCTGGA | -0.228 |
| CATCCGCC | 0.309 |
| ACACGATC | 0.113 |
| CTTTATAC | 0.0278 |
| ACAAGTAA | -0.22 |
| CGCCAGAC | -0.153 |
| CAGACTCC | 0.124 |
| GAATACCC | 0.16 |
| GCCGGAGA | 0.459 |
| CTGCGCTA | -0.088 |
| CCATGACG | -0.0228 |
| AGACGAGC | -0.173 |
| GCCTCCAA | -0.134 |
| CCGCATCG | 0.232 |
| TACGAGAA | 0.00262 |
| TCGCGAAA | 0.191 |
| TGAAATAA | -0.208 |

| Sequence | PBM E-score |
| --- | --- |
| CTAAAATC | -0.0418 |
| GCTTTTAA | 0.0263 |
| AACAGGAG | -0.137 |
| CGCGTGAC | 0.0234 |
| GTGGTACA | -0.152 |
| ACCGCTTG | -0.0343 |
| CAACGGGA | 0.148 |
| CGACATCC | 0.219 |
| AAGGCAAA | -0.165 |
| ACGTTCTA | -0.146 |
| AGATTTCC | 0.195 |
| CTGGTCTA | -0.174 |
| GCCGACTA | 0.182 |
| AGTAGAAT | -0.141 |
| AGTCCGGA | 0.476 |
| AGTAGCGA | -0.17 |
| CCAATAAA | -0.0291 |
| GACCTGTA | -0.118 |
| CTGGTTGA | -0.231 |
| GGAAGCTA | -0.0188 |
| CGGTATGC | 0.107 |
| ACGGCATG | 0.0608 |
| AGACACAG | -0.147 |
| CACCACGA | -0.0786 |
| CAGTATGA | -0.0866 |

| Sequence | PBM E-score |
| --- | --- |
| AAAATAAT | 0.0635 |
| AAAAGAAC | -0.0704 |
| CTCGATAA | 0.0644 |
| CCCCGTCG | 0.194 |
| AGACACAT | -0.188 |
| GTAGCTGA | -0.217 |
| GCACAGAC | 0.105 |
| CGAAGGTA | 0.0631 |
| ACATTTGG | 0.143 |
| ATAAAGGA | -0.182 |
| ACCGTTCA | -0.054 |
| ACGCAGAC | -0.204 |
| ATGGGTGG | -0.0707 |
| ATGTGACG | -0.238 |
| GTGCAAGA | -0.081 |
| ACTCACAT | -0.32 |
| ATTATTCC | 0.31 |
| GCCCGCCC | 0.303 |
| GTTAACCA | -0.016 |
| CACAGTAA | -0.0657 |
| GAAAGTGC | 0.0664 |
| CTTTAAGA | 0.151 |
| GAGCGACA | -0.157 |
| GCTGAGCA | -0.27 |
| CGGAAGAG | 0.221 |

| Sequence | PBM E-score |
| --- | --- |
| GGATATGA | 0.0976 |
| ACAAACTC | 0.155 |
| AAAAATAC | 0.0659 |
| ACCTACGG | 0.0706 |
| CTCTCGAA | -0.33 |
| GTGAACTA | -0.197 |
| AAGTCGGA | 0.328 |
| AATCAGAT | -0.145 |
| TGCCGCCA | 0.117 |
| GAAGGAAC | -0.0822 |
| CGTATACG | 0.234 |
| AACTAGAC | -0.0709 |
| AGCTCGAG | -0.0847 |
| GAATTTCC | 0.339 |
| ATCAGGCC | -0.0624 |
| GAGCGCAC | 0.154 |
| GTCATATA | -0.0339 |
| CAGAGGCG | -0.164 |
| AAGTGAAT | 0.0432 |
| CAGTCTTC | -0.211 |
| TAGTTACA | -0.124 |
| CACCCGGC | 0.185 |
| GTCCGGAC | 0.455 |
| CTCGCCAG | -0.203 |
| GTTCCAAC | 0.0696 |

| Sequence | PBM E-score |
| --- | --- |
| ACTCGCTG | -0.0391 |
| ACCTCAGG | -0.265 |
| ACCAATCG | 0.132 |
| AGAATGAC | -0.134 |
| CACTCGAA | -0.208 |
| CTCTACCA | -0.123 |
| AGTAGTGA | -0.125 |
| AGAGGGAT | -0.341 |
| AGGGAGGG | 0.0694 |
| GGCTATCA | -0.054 |
| GCGGACAA | 0.398 |
| AAGAGTTG | -0.129 |
| AGTATGCA | -0.151 |
| GGCGGTGA | 0.127 |
| ACCTTTAC | -0.0851 |
| CGCGCCCA | 0.146 |
| TAACTTAA | 0.0318 |
| TATCAACA | -0.194 |
| ACGGCTAA | 0.0492 |
| GCAGTCGA | -0.0263 |
| AACAGTGC | -0.078 |
| CTTAATAA | 0.141 |
| GAGACAAA | -0.0652 |
| CACGAGTG | -0.18 |
| GAAATAAC | 0.0248 |

| Sequence | PBM E-score |
| --- | --- |
| ACAGAAAG | -0.0741 |
| AGAGTGTC | 0.0202 |
| ATATGCAT | -0.0843 |
| CAGGTCCC | -0.0624 |
| AGCACATG | -0.0492 |
| GTATAGTA | 0.119 |
| CTCAAAGA | -0.2 |
| AATCTCGT | -0.11 |
| CCTCACAA | 0.0465 |
| TAAAAATA | -0.116 |
| ATGAAGTA | -0.15 |
| AGTTCAGC | -0.145 |
| CGATTGGA | -0.055 |
| GTCGTCAA | -0.0942 |
| GAATATAC | 0.223 |
| AACAACAG | -0.0312 |
| CAAGGACA | -0.204 |
| ACTATAAA | -0.0305 |
| GGGCACTA | -0.187 |
| ATATCTTG | -0.21 |
| AATCGACG | -0.0544 |
| CTGGTAGC | -0.131 |
| CATAGTCG | -0.106 |
| CGTATTGA | -0.17 |
| AAGAATGC | -0.00543 |

| Sequence | PBM E-score |
| --- | --- |
| ACCCTCCG | 0.328 |
| ACCGGACG | 0.369 |
| AGCGCTTG | 0.0403 |
| GTGGTAAC | -0.0132 |
| CGTCAAAA | -0.00464 |
| ATATGGAA | -0.0385 |
| ATGTGTGC | -0.152 |
| CTTGCGGA | 0.291 |
| TAGTGCAA | -0.114 |
| CATAACGA | -0.131 |
| CGCAATAA | 0.198 |
| ATCTAAGA | -0.231 |
| ACGTAACA | -0.141 |
| GGACCGAA | 0.206 |
| AAGGGAAC | -0.163 |
| ACGGCCGT | 0.185 |
| ATTACAGG | 0.133 |
| ATGACAGA | -0.256 |
| ACATATAA | -0.00381 |
| GTTAGCCA | 0.0392 |
| AACTACGT | -0.114 |
| GCCGGCAC | 0.304 |
| GGATGCAC | -0.0646 |
| AGTTGGTC | 0.0345 |
| ATTCGAAA | 0.0774 |

| Sequence | PBM E-score |
| --- | --- |
| GGGGCCAC | -0.0168 |
| ACGCTCGG | 0.295 |
| AACGCCCT | -0.182 |
| CGGAGGAG | 0.417 |
| CAACAGCG | -0.069 |
| CAAATCGC | 0.0116 |
| GAGGGACC | -0.222 |
| CTTAAGTC | -0.0372 |
| CAAGGAGA | -0.105 |
| AAAACGAT | -0.0652 |
| CCGAACCG | 0.367 |
| AGCGACAT | -0.166 |
| ATTATACA | 0.0193 |
| CCTCCAAC | -0.212 |
| ACGATATA | -0.127 |
| CACAGAAG | -0.2 |
| TCATCCGA | 0.301 |
| TAGCAGCA | -0.132 |
| CCGACGCG | 0.394 |
| ACATGCTC | -0.0918 |
| TAATGGGA | -0.256 |
| ATATAAGC | -0.127 |
| CCGTGCCA | 0.0908 |
| CACGAAAC | -0.0194 |
| GGCAAAAC | 0.0705 |

| Sequence | PBM E-score |
| --- | --- |
| GCAATACC | 0.0113 |
| GCGACCTA | -0.134 |
| AGGACAAC | -0.163 |
| CCTAAGCG | 0.0364 |
| GCTGGTGA | -0.0569 |
| ATAAAAGG | -0.206 |
| GAAATTTA | -0.00842 |
| GGAAAGAC | 0.0636 |
| AGTCCAAG | -0.236 |
| TCTATTAA | -0.177 |
| ACGACTAC | -0.281 |
| GCTGTGAC | -0.127 |
| TCTGTTCA | -0.233 |
| CTATAGGA | -0.218 |
| ATCCTCCA | -0.301 |
| CAACAGTG | 0.0389 |
| ACACCCCA | -0.171 |
| CGATTGAG | -0.0515 |
| ACTATGAG | -0.108 |
